# In the supplement of paper PMC8728848:
# Some of the results follow.
# Key:
# Assay in all cases: glycan array binding signal (z-score within array); higher = stronger binding
# Settings in all cases: glycan notation: IUPAC condensed, linker removed
# [1] = target: Fuc(a1-2)Gal
# How it was run: (§1)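 The binding signal is a Z-score computed within each array. Data were drawn from 3228 arrays in the Consortium for Functional Glycomics database, restricted to those with a known protein sequence. Scores were averaged over arrays of the same protein sequence at different concentrations or buffers, and over linkers, and negative values can be taken as non-binding.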
# [2] = target: Fuc(a1-2)Gal(b1-3)GalNAc
# How it was run: as §1
# [3] = target: Fuc(a1-2)Gal(b1-3)GalNAc(a1-3)[Fuc(a1-2)]Gal(b1-4)Glc
# How it was run: as §1
# [4] = target: Fuc(a1-2)Gal(b1-3)GalNAc(a1-3)[Fuc(a1-2)]Gal(b1-4)GlcNAc
# How it was run: as §1
# [5] = target: Fuc(a1-2)Gal(b1-3)GalNAc(b1-3)Gal
# How it was run: as §1
# [6] = target: Fuc(a1-2)Gal(b1-3)GalNAc(b1-3)Gal(a1-4)Gal(b1-4)Glc
# How it was run: as §1
# [7] = target: Fuc(a1-2)Gal(b1-3)GalNAc(b1-4)[Neu5Ac(a2-3)]Gal(b1-4)Glc
# How it was run: as §1
# [8] = target: Fuc(a1-2)Gal(b1-3)GlcNAc
# How it was run: as §1
# [9] = target: Fuc(a1-2)Gal(b1-3)GlcNAc(b1-2)Man(a1-3)[Fuc(a1-2)Gal(b1-3)GlcNAc(b1-2)Man(a1-6)]Man(b1-4)GlcNAc(b1-4)GlcNAc
# How it was run: as §1
# [10] = target: Fuc(a1-2)Gal(b1-3)GlcNAc(b1-2)Man(a1-3)[Fuc(a1-2)Gal(b1-3)GlcNAc(b1-2)Man(a1-6)]Man(b1-4)GlcNAc(b1-4)[Fuc(a1-6)]GlcNAc
# How it was run: as §1
# [11] = target: Fuc(a1-2)Gal(b1-3)GlcNAc(b1-3)Gal(b1-4)Glc
# How it was run: as §1
# [12] = target: Fuc(a1-2)Gal(b1-3)GlcNAc(b1-3)GalNAc
# How it was run: as §1
# [13] = target: Fuc(a1-2)Gal(b1-3)GlcNAc(b1-3)[Fuc(a1-2)Gal(b1-3)GlcNAc(b1-6)]GalNAc
# How it was run: as §1
# [14] = target: Fuc(a1-2)Gal(b1-3)GlcNAc(b1-3)[Gal(b1-4)GlcNAc(b1-6)]Gal(b1-4)Glc
# How it was run: as §1
# [15] = target: Fuc(a1-2)Gal(b1-3)GlcNAc(b1-3)[Neu5Ac(a2-6)Gal(b1-4)GlcNAc(b1-6)]Gal(b1-4)Glc
# How it was run: as §1
# [16] = target: Fuc(a1-2)Gal(b1-3)GlcNAc6S
# How it was run: as §1
# [17] = target: Fuc(a1-2)Gal(b1-3)[Fuc(a1-4)]GlcNAc
# How it was run: as §1
# [18] = target: Fuc(a1-2)Gal(b1-3)[Fuc(a1-4)]GlcNAc(b1-2)Man(a1-3)[Fuc(a1-2)Gal(b1-3)[Fuc(a1-4)]GlcNAc(b1-2)Man(a1-3)]Man(b1-4)GlcNAc(b1-4)GlcNAc
# How it was run: as §1
# [19] = target: Fuc(a1-2)Gal(b1-3)[Fuc(a1-4)]GlcNAc(b1-2)Man(a1-3)[Fuc(a1-2)Gal(b1-3)[Fuc(a1-4)]GlcNAc(b1-2)Man(a1-6)]Man(b1-4)GlcNAc(b1-4)[Fuc(a1-6)]GlcNAc(b1-4)[Fuc(a1-6)]GlcNAc
# How it was run: as §1
# [20] = target: Fuc(a1-2)Gal(b1-3)[Fuc(a1-4)]GlcNAc(b1-3)[Fuc(a1-3)[Gal(b1-4)]GlcNAc(b1-6)]Gal(b1-4)Glc
# How it was run: as §1
# [21] = target: Fuc(a1-2)Gal(b1-3)[Fuc(a1-4)]GlcNAc(b1-3)[Gal(b1-4)GlcNAc(b1-6)]Gal(b1-4)Glc
# How it was run: as §1
# [22] = target: Fuc(a1-2)Gal(b1-4)Fuc(a1-3)]GlcNAc(b1-2)Man(a1-3)[Fuc(a1-2)Gal(b1-4)[Fuc(a1-3)]GlcNAc(b1-2)Man(a1-6)]Man(b1-4)GlcNAc(b1-4)GlcNAc
# How it was run: as §1
# [23] = target: Fuc(a1-2)Gal(b1-4)Glc
# How it was run: as §1
# [24] = target: Fuc(a1-2)Gal(b1-4)Glc6S
# How it was run: as §1
# [25] = target: Fuc(a1-2)Gal(b1-4)GlcNAc
# How it was run: as §1
# [26] = target: Fuc(a1-2)Gal(b1-4)GlcNAc(b1-2)Man
# How it was run: as §1
# [27] = target: Fuc(a1-2)Gal(b1-4)GlcNAc(b1-2)Man(a1-3)[Fuc(a1-2)Gal(b1-4)GlcNAc(b1-2)Man(a1-6)]Man(b1-4)GlcNAc(b1-4)GlcNAc
# How it was run: as §1
# [28] = target: Fuc(a1-2)Gal(b1-4)GlcNAc(b1-2)Man(a1-3)[Fuc(a1-2)Gal(b1-4)GlcNAc(b1-2)Man(a1-6)]Man(b1-4)GlcNAc(b1-4)[Fuc(a1-6)]GlcNAc
# How it was run: as §1
# [29] = target: Fuc(a1-2)Gal(b1-4)GlcNAc(b1-2)[Fuc(a1-2)Gal(b1-4)GlcNAc(b1-4)]Man(a1-3)[Fuc(a1-2)Gal(b1-4)GlcNAc(b1-2)Man(a1-6)]Man(b1-4)GlcNAc(b1-4)GlcNAc
# How it was run: as §1
# [30] = target: Fuc(a1-2)Gal(b1-4)GlcNAc(b1-3)Gal(b1-4)GlcNAc
# How it was run: as §1
# [31] = target: Fuc(a1-2)Gal(b1-4)GlcNAc(b1-3)Gal(b1-4)GlcNAc(b1-2)Man(a1-3)[Fuc(a1-2)Gal(b1-4)GlcNAc(b1-3)Gal(b1-4)GlcNAc(b1-2)Man(a1-6)]Man(b1-4)GlcNAc(b1-4)GlcNAc
# How it was run: as §1
# [32] = target: Fuc(a1-2)Gal(b1-4)GlcNAc(b1-3)Gal(b1-4)GlcNAc(b1-3)Gal(b1-4)GlcNAc
# How it was run: as §1
# [33] = target: Fuc(a1-2)Gal(b1-4)GlcNAc(b1-3)GalNAc
# How it was run: as §1
# [34] = target: Fuc(a1-2)Gal(b1-4)GlcNAc(b1-3)[Fuc(a1-2)Gal(b1-4)GlcNAc(b1-6)]GalNAc
# How it was run: as §1
# [35] = target: Fuc(a1-2)Gal(b1-4)GlcNAc(b1-3)[Fuc(a1-3)[Gal(b1-4)]GlcNAc(b1-6)]Gal(b1-4)Glc
# How it was run: as §1
# [36] = target: Fuc(a1-2)Gal(b1-4)GlcNAc(b1-6)GalNAc
# How it was run: as §1
# [37] = target: Fuc(a1-2)Gal(b1-4)GlcNAc6S
# How it was run: as §1
binder,measurement,setting,value
"Gal-9-hFc (Mus musculus), O08573-2 (protein) MALFSAQSPYINPIIPFTGPIQGGLQEGLQVTLQGTTKSFAQRFVVNFQNSFNGNDIAFHFNPRFEEGGYVVCNTKQNGQWGPEERKMQMPFQKGMPFELCFLVQRSEFKVMVNKKFFVQYQHRVPYHLVDTIAVSGCLKLSFITFQTQNFRPAHQAPMAQTTIHMVHSTPGQMFSTPGIPPVVYPTPAYTIPFYTPIPNGLYPSKSIMISGNVLPDATRFHINLRCGGDIAFHLNPRFNENAVVRNTQINNSWGQEERSLLGRMPFSRGQSFSVWIICEGHCFKVAVNGQHMCEYYHRLKNLQDINTLEVAGDIQLTHVQT",glycan array binding signal (z-score),[1],-0.248
same,glycan array binding signal (z-score),[2],-0.533
same,glycan array binding signal (z-score),[3],-0.211
same,glycan array binding signal (z-score),[4],-0.235
same,glycan array binding signal (z-score),[5],0.235
same,glycan array binding signal (z-score),[6],-0.29
same,glycan array binding signal (z-score),[7],-0.358
same,glycan array binding signal (z-score),[8],-0.292
same,glycan array binding signal (z-score),[9],0.676
same,glycan array binding signal (z-score),[10],-0.361
same,glycan array binding signal (z-score),[11],-0.324
same,glycan array binding signal (z-score),[12],-0.5
same,glycan array binding signal (z-score),[13],-0.102
same,glycan array binding signal (z-score),[14],-0.497
same,glycan array binding signal (z-score),[15],-0.581
same,glycan array binding signal (z-score),[16],-0.369
same,glycan array binding signal (z-score),[17],-0.543
same,glycan array binding signal (z-score),[18],1.02
same,glycan array binding signal (z-score),[19],-0.397
same,glycan array binding signal (z-score),[20],-0.609
same,glycan array binding signal (z-score),[21],-0.581
same,glycan array binding signal (z-score),[22],0.109
same,glycan array binding signal (z-score),[23],-0.131
same,glycan array binding signal (z-score),[24],0.123
same,glycan array binding signal (z-score),[25],-0.448
same,glycan array binding signal (z-score),[26],-0.05
same,glycan array binding signal (z-score),[27],0.415
same,glycan array binding signal (z-score),[28],0.215
same,glycan array binding signal (z-score),[29],-0.005
same,glycan array binding signal (z-score),[30],-0.528
same,glycan array binding signal (z-score),[31],-0.349
same,glycan array binding signal (z-score),[32],-0.425
same,glycan array binding signal (z-score),[33],-0.339
same,glycan array binding signal (z-score),[34],-0.126
same,glycan array binding signal (z-score),[35],-0.013
same,glycan array binding signal (z-score),[36],-0.217
same,glycan array binding signal (z-score),[37],-0.362
